Data taken from the supplement of paper PMC12578646, “Prodrug florfenicol amine is activated by intrinsic resistance to target Mycobacterium abscessus” (Nature Microbiology, 2025).

Assays:
Assay in all cases: growth relative to untreated wells; higher = more growth (less inhibition)
[1] = test system: Mycobacterium abscessus ATCC 19977 Eis2 E120fs
Description: (§1)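 384-well two-fold dose series, two replicates; 5 days at 37 °C, then 24 h with resazurin; fluorescence scaled to growth and killed controls.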

[2] = test system: Mycobacterium abscessus ATCC 19977 Eis2 T258R
Description: as §1

[3] = test system: Mycobacterium abscessus ATCC 19977 Eis2 Y227D
Description: as §1

[4] = test system: Mycobacterium abscessus ATCC 19977 Eis2 Y255*
Description: as §1

[5] = test system: Mycobacterium abscessus ATCC 19977 Eis2 Y284*
Description: as §1

[6] = test system: Mycobacterium abscessus ATCC 19977 WhiB7 F24fs
Description: as §1

[7] = test system: Mycobacterium abscessus ATCC 19977 WhiB7 L37P
Description: as §1

[8] = test system: Mycobacterium abscessus ATCC 19977 WhiB7 R76del
Description: as §1

[9] = test system: Mycobacterium abscessus ATCC 19977 WhiB7 T70fs
Description: as §1

[10] = test system: Mycobacterium abscessus ATCC 19977 Δeis2
Description: as §1

[11] = test system: Mycobacterium abscessus ATCC 19977 ΔwhiB7
Description: as §1

[12] = test system: Mycobacterium abscessus ATCC 19977
Description: as §1

## CS(=O)(=O)c1ccc([C@@H](O)[C@@H](CF)NC(=O)C(Cl)Cl)cc1 [florfenicol]
[1]; 0.5 µg/mL
  growth: 107 ± 2.5%
[1]; 1 µg/mL
  growth: 110.7 ± 0.82%
[1]; 2 µg/mL
  growth: 112.34 ± 0.054%
[1]; 4 µg/mL
  growth: 117 ± 5.7%
[1]; 8 µg/mL
  growth: 116 ± 2%
[1]; 16 µg/mL
  growth: 105 ± 3.5%
[1]; 32 µg/mL
  growth: 37 ± 1.1%
[1]; 64 µg/mL
  growth: 3.44 ± 1%
[1]; 128 µg/mL
  growth: -0.458 ± 0.55%
[1]; 256 µg/mL
  growth: -1.61 ± 0.29%
[1]; 512 µg/mL
  growth: -1.64 ± 0.12%
[1]; 1024 µg/mL
  growth: -1.87 ± 0.1%
[2]; 0.5 µg/mL
  growth: 95.2 ± 6.6%
[2]; 1 µg/mL
  growth: 102.1 ± 0.83%
[2]; 2 µg/mL
  growth: 92.1 ± 10%
[2]; 4 µg/mL
  growth: 109 ± 4.6%
[2]; 8 µg/mL
  growth: 113 ± 4.8%
[2]; 16 µg/mL
  growth: 67.1 ± 2.3%
[2]; 32 µg/mL
  growth: 6.57 ± 1.6%
[2]; 64 µg/mL
  growth: -0.123 ± 0.82%
[2]; 128 µg/mL
  growth: -2.29 ± 0.2%
[2]; 256 µg/mL
  growth: -2.22 ± 0.36%
[2]; 512 µg/mL
  growth: -2.28 ± 0.21%
[2]; 1024 µg/mL
  growth: -2.19 ± 0.24%
[3]; 0.5 µg/mL
  growth: 106 ± 2.5%
[3]; 1 µg/mL
  growth: 108 ± 1.1%
[3]; 2 µg/mL
  growth: 108 ± 7.7%
[3]; 4 µg/mL
  growth: 115 ± 4.6%
[3]; 8 µg/mL
  growth: 120.7 ± 0.81%
[3]; 16 µg/mL
  growth: 105 ± 1.3%
[3]; 32 µg/mL
  growth: 39.24 ± 0.21%
[3]; 64 µg/mL
  growth: 4.03 ± 2.5%
[3]; 128 µg/mL
  growth: 0.0861 ± 0.44%
[3]; 256 µg/mL
  growth: -0.2 ± 0.62%
[3]; 512 µg/mL
  growth: -0.268 ± 0.68%
[3]; 1024 µg/mL
  growth: -0.612 ± 0.47%
[4]; 0.5 µg/mL
  growth: 101.47 ± 0.054%
[4]; 1 µg/mL
  growth: 104 ± 7.1%
[4]; 2 µg/mL
  growth: 103 ± 5%
[4]; 4 µg/mL
  growth: 111 ± 4.3%
[4]; 8 µg/mL
  growth: 119.7 ± 0.89%
[4]; 16 µg/mL
  growth: 85.8 ± 1.9%
[4]; 32 µg/mL
  growth: 19.6 ± 12%
[4]; 64 µg/mL
  growth: 0.226 ± 1.4%
[4]; 128 µg/mL
  growth: -2.67 ± 2.9%
[4]; 256 µg/mL
  growth: -3.32 ± 2.1%
[4]; 512 µg/mL
  growth: -3.09 ± 2.4%
[4]; 1024 µg/mL
  growth: -3.09 ± 2.3%
[5]; 0.5 µg/mL
  growth: 103.3 ± 0.7%
[5]; 1 µg/mL
  growth: 101 ± 3.5%
[5]; 2 µg/mL
  growth: 103 ± 1.4%
[5]; 4 µg/mL
  growth: 110.8 ± 0.12%
[5]; 8 µg/mL
  growth: 119.6 ± 0.97%
[5]; 16 µg/mL
  growth: 61.1 ± 7.8%
[5]; 32 µg/mL
  growth: 8.93 ± 0.26%
[5]; 64 µg/mL
  growth: -0.153 ± 0.95%
[5]; 128 µg/mL
  growth: -2.04 ± 0.098%
[5]; 256 µg/mL
  growth: -2.11 ± 0.064%
[5]; 512 µg/mL
  growth: -1.958 ± 0.016%
[5]; 1024 µg/mL
  growth: -1.89 ± 0.14%
[6]; 0.5 µg/mL
  growth: 102 ± 1.9%
[6]; 1 µg/mL
  growth: 102 ± 5.8%
[6]; 2 µg/mL
  growth: 98.1 ± 2.9%
[6]; 4 µg/mL
  growth: 113 ± 2.8%
[6]; 8 µg/mL
  growth: 111.2 ± 0.61%
[6]; 16 µg/mL
  growth: 105 ± 0.98%
[6]; 32 µg/mL
  growth: 39.4 ± 8.7%
[6]; 64 µg/mL
  growth: 10.7 ± 4.2%
[6]; 128 µg/mL
  growth: 2.01 ± 0.69%
[6]; 256 µg/mL
  growth: -2.18 ± 0.22%
[6]; 512 µg/mL
  growth: 2.5 ± 5.7%
[6]; 1024 µg/mL
  growth: -1.21 ± 0.2%
[7]; 0.5 µg/mL
  growth: 102 ± 4%
[7]; 1 µg/mL
  growth: 99.1 ± 21%
[7]; 2 µg/mL
  growth: 109 ± 3.1%
[7]; 4 µg/mL
  growth: 115.3 ± 1.1%
[7]; 8 µg/mL
  growth: 117 ± 3.7%
[7]; 16 µg/mL
  growth: 117 ± 0.31%
[7]; 32 µg/mL
  growth: 66.5 ± 3%
[7]; 64 µg/mL
  growth: 15.6 ± 3.5%
[7]; 128 µg/mL
  growth: 4.7 ± 0.24%
[7]; 256 µg/mL
  growth: -1.16 ± 0.052%
[7]; 512 µg/mL
  growth: -1.89 ± 0.12%
[7]; 1024 µg/mL
  growth: -1.67 ± 0.21%
[8]; 0.5 µg/mL
  growth: 102 ± 5.9%
[8]; 1 µg/mL
  growth: 106 ± 4.1%
[8]; 2 µg/mL
  growth: 100.3 ± 0.63%
[8]; 4 µg/mL
  growth: 116 ± 5.9%
[8]; 8 µg/mL
  growth: 118 ± 4.3%
[8]; 16 µg/mL
  growth: 104 ± 8.8%
[8]; 32 µg/mL
  growth: 35.6 ± 7.3%
[8]; 64 µg/mL
  growth: 8.92 ± 0.9%
[8]; 128 µg/mL
  growth: 1.6 ± 0.23%
[8]; 256 µg/mL
  growth: -2.08 ± 0.82%
[8]; 512 µg/mL
  growth: -2.04 ± 0.7%
[8]; 1024 µg/mL
  growth: -1.87 ± 0.18%
[9]; 0.5 µg/mL
  growth: 94.14 ± 0.44%
[9]; 1 µg/mL
  growth: 100 ± 8.1%
[9]; 2 µg/mL
  growth: 99.5 ± 5.6%
[9]; 4 µg/mL
  growth: 108.2 ± 0.15%
[9]; 8 µg/mL
  growth: 113 ± 1.4%
[9]; 16 µg/mL
  growth: 109 ± 6.6%
[9]; 32 µg/mL
  growth: 52.4 ± 4.4%
[9]; 64 µg/mL
  growth: 8.7 ± 2.6%
[9]; 128 µg/mL
  growth: 0.344 ± 1.7%
[9]; 256 µg/mL
  growth: -3.68 ± 1.1%
[9]; 512 µg/mL
  growth: -3.82 ± 1.1%
[9]; 1024 µg/mL
  growth: -2.71 ± 2.2%
[10]; 0.5 µg/mL
  growth: 94.9 ± 1.7%
[10]; 1 µg/mL
  growth: 97.9 ± 3.1%
[10]; 2 µg/mL
  growth: 101 ± 1.2%
[10]; 4 µg/mL
  growth: 102 ± 4.6%
[10]; 8 µg/mL
  growth: 109.7 ± 0.74%
[10]; 16 µg/mL
  growth: 66.6 ± 14%
[10]; 32 µg/mL
  growth: 23.3 ± 12%
[10]; 64 µg/mL
  growth: 1.97 ± 0.97%
[10]; 128 µg/mL
  growth: -1.16 ± 1.1%
[10]; 256 µg/mL
  growth: -2.82 ± 0.59%
[10]; 512 µg/mL
  growth: -2.44 ± 0.19%
[10]; 1024 µg/mL
  growth: -2.02 ± 0.17%
[11]; 0.5 µg/mL
  growth: 97.5 ± 2.7%
[11]; 1 µg/mL
  growth: 102 ± 1.3%
[11]; 2 µg/mL
  growth: 106 ± 5.8%
[11]; 4 µg/mL
  growth: 118 ± 14%
[11]; 8 µg/mL
  growth: 122 ± 12%
[11]; 16 µg/mL
  growth: 118 ± 8.7%
[11]; 32 µg/mL
  growth: 68.14 ± 0.37%
[11]; 64 µg/mL
  growth: 26.2 ± 7.1%
[11]; 128 µg/mL
  growth: 8.54 ± 2.6%
[11]; 256 µg/mL
  growth: -2.06 ± 2.4%
[11]; 512 µg/mL
  growth: -3.67 ± 4.1%
[11]; 1024 µg/mL
  growth: -4.23 ± 4.8%
[12]; 0.5 µg/mL
  growth: 96.7 ± 5.3%
[12]; 1 µg/mL
  growth: 105 ± 2.8%
[12]; 2 µg/mL
  growth: 111 ± 5.8%
[12]; 4 µg/mL
  growth: 110 ± 6.5%
[12]; 8 µg/mL
  growth: 115 ± 4%
[12]; 16 µg/mL
  growth: 70 ± 16%
[12]; 32 µg/mL
  growth: 21.8 ± 23%
[12]; 64 µg/mL
  growth: 0.239 ± 0.9%
[12]; 128 µg/mL
  growth: -1.22 ± 0.87%
[12]; 256 µg/mL
  growth: 0.115 ± 3%
[12]; 512 µg/mL
  growth: -1.6 ± 0.44%
[12]; 1024 µg/mL
  growth: -1.14 ± 0.79%

± gives the standard deviation of the averaged measurements. M. abscessus ATCC 19977 and its deletion, point and complemented mutants after 5 days of drug at 37 °C plus 24 h of resazurin. Growth in % of untreated wells at the dose given (lower = more inhibition); checkerboards give % inhibition (higher = more inhibition); IC50 from the fitted curve (lower = more potent). No active / inactive call. IC50 values come from the same 384-well curves. Growth is not capped and can exceed 100%. The direction of the checkerboard scale is read from the raw signals. Capreomycin is a mixture.
